# Measurements from the supplement of paper PMC4604168 (melanoma cell lines).
# The list shows a part of the results. Most values come without repeats; read them as rough.
# Tests used:
# Test in all cases: cell count relative to DMSO control; melanoma cells; higher = more viable cells
# Details in all cases: library dose: low library concentration; 72 h
# WM115 = system: WM115
# WM1716 = system: WM1716
# WM1745 = system: WM1745
# WM3526 = system: WM3526
# WM3619 = system: WM3619
# WM451Lu = system: WM451Lu
# 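Also: cell number obtained by counting DAPI-stained nuclei in high-throughput microscope images with image analysis software, screen run in 1,536-well plates.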
Compound,cell count (WM115),cell count (WM1716),cell count (WM1745),cell count (WM3526),cell count (WM3619),cell count (WM451Lu)
"CC(=O)c1c(C)c2cnc(Nc3ccc(N4CCNCC4)cn3)nc2n(C2CCCC2)c1=O [palbociclib] + Oc1cc(-c2nc(-c3ccccc3)[nH]c2-c2ccncc2)ccc1Cl [L779450] (first compound 0.04 µM, partner dose 0.2 µM)",71.7%,70.9%,67.9%,53%,75.1%,60.7%
"Nc1nc(F)nc2c1ncn2[C@@H]1O[C@H](CO)[C@@H](O)[C@@H]1O [fludarabine] + COc1cc(N2CCC(N3CCN(C)CC3)CC2)ccc1Nc1ncc(Cl)c(Nc2ccccc2S(=O)(=O)C(C)C)n1 [NVP-TAE684] (first compound 0.2 µM, partner dose 0.08 µM)",96.3%,95.6%,88.9%,22.3%,85.8%,54.1%
"Nc1ncn([C@H]2C[C@H](O)[C@@H](CO)O2)c(=O)n1 [decitabine] + COCC[n+]1c2c(n(Cc3cnccn3)c1C)C(=O)c1ccccc1C2=O [YM155] (first compound 0.1 µM, partner dose 0.0004 µM)",72.3%,62.8%,88.5%,105%,78.7%,83.6%
"Nc1ccn([C@@H]2O[C@H](CO)[C@@H](O)C2(F)F)c(=O)n1 [gemcitabine] + O=C(O)C(=O)Nc1sc2c(c1C(=O)O)CCNC2 [TCS401] (first compound 0.0004 µM, partner dose 1.66667 µM)",96.1%,104%,71%,82.6%,85.8%,106%
"CC(=O)O[C@@]12CO[C@@H]1C[C@H](O)[C@@]1(C)C(=O)[C@H](O)C3=C(C)[C@@H](OC(=O)[C@H](O)[C@@H](NC(=O)OC(C)(C)C)c4ccccc4)C[C@@](O)([C@@H](OC(=O)c4ccccc4)[C@H]21)C3(C)C [Docetaxel] + COc1cc(N2CCC(N3CCN(C)CC3)CC2)ccc1Nc1ncc(Cl)c(Nc2ccccc2S(=O)(=O)C(C)C)n1 [NVP-TAE684] (first compound 0.0001 µM, partner dose 0.08 µM)",57.5%,42.5%,52.1%,37%,44%,49%
"Nc1ncn([C@H]2C[C@H](O)[C@@H](CO)O2)c(=O)n1 [decitabine] + COc1ccc(COc2ccc(Cc3cnc(N)nc3N)cc2OC)cc1 [GW2580] (first compound 0.1 µM, partner dose 1 µM)",77.9%,79.1%,97%,96.1%,89.9%,97.2%
"Nc1ccn([C@@H]2O[C@H](CO)[C@@H](O)C2(F)F)c(=O)n1 [gemcitabine] + O=C(CCCCCCC(=O)Nc1ccccc1)NO [vorinostat] (first compound 0.0004 µM, partner dose 0.08 µM)",107%,125%,61.5%,104%,61.3%,78.8%
"CO[C@H]1C[C@@H]2CC[C@@H](C)[C@@](O)(O2)C(=O)C(=O)N2CCCC[C@H]2C(=O)O[C@H]([C@H](C)C[C@@H]2CC[C@@H](OCCO)[C@H](OC)C2)CC(=O)[C@H](C)/C=C(\C)[C@@H](O)[C@@H](OC)C(=O)[C@H](C)C[C@H](C)/C=C/C=C/C=C/1C [everolimus] + OCc1c[nH]c2ccccc12 [Indole-3-carbinol] (first compound 0.02 µM, partner dose 0.8 µM)",73.8%,67.7%,86%,62.2%,53.3%,88.9%
"Nc1ncn([C@H]2C[C@H](O)[C@@H](CO)O2)c(=O)n1 [decitabine] + O=S(=O)(c1ccccc1)N(CC(F)(F)F)c1ccc(C(O)(C(F)(F)F)C(F)(F)F)cc1 [T0901317] (first compound 0.1 µM, partner dose 1.4 µM)",86.1%,80.8%,83.8%,86.5%,102%,98.7%
"Nc1nc(F)nc2c1ncn2[C@@H]1O[C@H](CO)[C@@H](O)[C@@H]1O [fludarabine] + Cc1nc(Nc2ncc(C(=O)Nc3c(C)cccc3Cl)s2)cc(N2CCN(CCO)CC2)n1 [dasatanib] (first compound 0.2 µM, partner dose 0.004 µM)",72.5%,86.9%,69.7%,22.9%,97.6%,43.5%
"CC(=O)c1c(C)c2cnc(Nc3ccc(N4CCNCC4)cn3)nc2n(C2CCCC2)c1=O [palbociclib] + C=CCn1c(=O)c2cnc(Nc3ccc(N4CCN(C)CC4)cc3)nc2n1-c1cccc(C(C)(C)O)n1 [MK1775] (first compound 0.04 µM, partner dose 0.02 µM)",66.6%,52%,78.1%,54.5%,63.5%,71.7%
"Nc1ncn([C@H]2C[C@H](O)[C@@H](CO)O2)c(=O)n1 [decitabine] + C[C@@H]1CCN(C(=O)CC#N)C[C@@H]1N(C)c1ncnc2[nH]ccc12 [CP690550] (first compound 0.1 µM, partner dose 1 µM)",88.3%,81.7%,84.6%,108%,93.7%,106%
"CC(=O)O[C@@]12CO[C@@H]1C[C@H](O)[C@@]1(C)C(=O)[C@H](O)C3=C(C)[C@@H](OC(=O)[C@H](O)[C@@H](NC(=O)OC(C)(C)C)c4ccccc4)C[C@@](O)([C@@H](OC(=O)c4ccccc4)[C@H]21)C3(C)C [Docetaxel] + CO[C@@H]1[C@H](N(C)C(=O)c2ccccc2)C[C@H]2O[C@]1(C)n1c3ccccc3c3c4c(c5c6ccccc6n2c5c31)C(=O)NC4 [Midostaurin] (first compound 0.0001 µM, partner dose 0.08 µM)",45.2%,23.3%,33.2%,31.5%,64.1%,51.2%
"Nc1ccn([C@@H]2O[C@H](CO)[C@@H](O)C2(F)F)c(=O)n1 [gemcitabine] + Cn1cncc1[C@@](N)(c1ccc(Cl)cc1)c1ccc2c(c1)c(-c1cccc(Cl)c1)cc(=O)n2C [tipifarnib] (first compound 0.0004 µM, partner dose 0.01 µM)",95.9%,93.2%,76.2%,79.4%,46.9%,91.6%
"CO[C@H]1C[C@@H]2CC[C@@H](C)[C@@](O)(O2)C(=O)C(=O)N2CCCC[C@H]2C(=O)O[C@H]([C@H](C)C[C@@H]2CC[C@@H](OCCO)[C@H](OC)C2)CC(=O)[C@H](C)/C=C(\C)[C@@H](O)[C@@H](OC)C(=O)[C@H](C)C[C@H](C)/C=C/C=C/C=C/1C [everolimus] + Cc1cc([N+](=O)[O-])ccc1NS(=O)(=O)c1cc(Cl)ccc1Cl [FH535] (first compound 0.02 µM, partner dose 1 µM)",71.6%,75.6%,78.9%,65.5%,68.2%,85.4%
"Nc1ccn([C@@H]2O[C@H](CO)[C@@H](O)C2(F)F)c(=O)n1 [gemcitabine] + COc1cc(N2CCC(N3CCN(C)CC3)CC2)ccc1Nc1ncc(Cl)c(Nc2ccccc2S(=O)(=O)C(C)C)n1 [NVP-TAE684] (first compound 0.0004 µM, partner dose 0.08 µM)",91.3%,102%,59.2%,91.2%,68.1%,89.2%
"Nc1nc(F)nc2c1ncn2[C@@H]1O[C@H](CO)[C@@H](O)[C@@H]1O [fludarabine] + c1cc(-c2cnn3cc(-c4ccc(OCCN5CCCCC5)cc4)cnc23)ccn1 [Dorsomorphin] (first compound 0.2 µM, partner dose 0.4 µM)",97.5%,106%,98.7%,20.5%,96%,27%
"Nc1nc(F)nc2c1ncn2[C@@H]1O[C@H](CO)[C@@H](O)[C@@H]1O [fludarabine] + OCc1c[nH]c2ccccc12 [Indole-3-carbinol] (first compound 0.2 µM, partner dose 0.8 µM)",104%,89.7%,99.1%,29.3%,75.4%,53.9%
"Nc1ccn([C@@H]2O[C@H](CO)[C@@H](O)C2(F)F)c(=O)n1 [gemcitabine] + Cc1nc(Nc2ncc(C(=O)Nc3c(C)cccc3Cl)s2)cc(N2CCN(CCO)CC2)n1 [dasatanib] (first compound 0.0004 µM, partner dose 0.004 µM)",78%,82.7%,48.9%,126%,67.2%,97.5%
"Nc1nc(F)nc2c1ncn2[C@@H]1O[C@H](CO)[C@@H](O)[C@@H]1O [fludarabine] + CC(=O)c1c(C)c2cnc(Nc3ccc(N4CCNCC4)cn3)nc2n(C2CCCC2)c1=O [palbociclib] (first compound 0.2 µM, partner dose 0.04 µM)",66.7%,69.2%,74.4%,30%,62.4%,45.9%
"Nc1nc(F)nc2c1ncn2[C@@H]1O[C@H](CO)[C@@H](O)[C@@H]1O [fludarabine] + Cc1cc(N2CCOCC2)cc2[nH]c(-c3c(NC[C@@H](O)c4cccc(Cl)c4)cc[nH]c3=O)nc12 [BMS536924] (first compound 0.2 µM, partner dose 0.2 µM)",103%,119%,91.8%,19.6%,82.1%,30.4%
